Measured values reported in the supplement of paper PMC8728848.
The other results are listed elsewhere or left out.

Assays:
Test in all cases: glycan array binding signal (z-score within array); higher = stronger binding
Details in all cases: glycan notation: IUPAC condensed, linker removed; mutation: D22R
Gal6S(b1-4)Glc = molecular target: Gal6S(b1-4)Glc
Procedure, shortened: (§1)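 Glycan array binding is given as a within-array Z-score, which can be read as non-binding when negative. The arrays, 3228 of them, came from the Consortium for Functional Glycomics database and were retained only where the protein sequence was available. Z-scores were averaged across arrays of the same protein sequence at different concentrations or buffers and across linkers.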

Gal6S(b1-4)Glc6S = molecular target: Gal6S(b1-4)Glc6S
Procedure, shortened: as §1

Gal6S(b1-4)GlcNAc = molecular target: Gal6S(b1-4)GlcNAc
Procedure, shortened: as §1

Gal6S(b1-4)GlcNAc6S = molecular target: Gal6S(b1-4)GlcNAc6S
Procedure, shortened: as §1

GalNAc(a1-3)Gal = molecular target: GalNAc(a1-3)Gal
Procedure, shortened: as §1

GalNAc(a1-3)GalNAc = molecular target: GalNAc(a1-3)GalNAc
Procedure, shortened: as §1

[1] = molecular target: GalNAc(a1-3)GalNAc(b1-3)Gal(a1-4)Gal(b1-4)Glc
Procedure, shortened: as §1

[2] = molecular target: GalNAc(a1-3)GalNAc(b1-3)Gal(a1-4)Gal(b1-4)GlcNAc
Procedure, shortened: as §1

GalNAc(b1-3)Gal = molecular target: GalNAc(b1-3)Gal
Procedure, shortened: as §1

[3] = molecular target: GalNAc(b1-3)Gal(a1-4)Gal(b1-4)GlcNAc
Procedure, shortened: as §1

[4] = molecular target: GalNAc(b1-3)Gal(a1-4)Gal(b1-4)GlcNAc(b1-3)Gal(b1-4)Glc
Procedure, shortened: as §1

[5] = molecular target: GalNAc(b1-3)Gal(a1-6)Gal(b1-4)Glc
Procedure, shortened: as §1

GalNAc(b1-3)GalNAc = molecular target: GalNAc(b1-3)GalNAc
Procedure, shortened: as §1

GalNAc(b1-3)GlcNAc = molecular target: GalNAc(b1-3)GlcNAc
Procedure, shortened: as §1

GalNAc(b1-4)Gal(b1-4)Glc = molecular target: GalNAc(b1-4)Gal(b1-4)Glc
Procedure, shortened: as §1

GalNAc(b1-4)GlcNAc = molecular target: GalNAc(b1-4)GlcNAc
Procedure, shortened: as §1

[6] = molecular target: GalNAc(b1-4)GlcNAc(b1-2)Man
Procedure, shortened: as §1

[7] = molecular target: GalNAc(b1-4)GlcNAc(b1-2)Man(a1-3)[GalNAc(b1-4)GlcNAc(b1-2)Man(a1-6)]Man(b1-4)GlcNAc(b1-4)GlcNAc
Procedure, shortened: as §1

[8] = molecular target: GalNAc(b1-4)GlcNAc(b1-3)GalNAc(b1-4)GlcNAc
Procedure, shortened: as §1

GalNAc(b1-4)GlcNAc6S = molecular target: GalNAc(b1-4)GlcNAc6S
Procedure, shortened: as §1

GalNAc(b1-6)GalNAc = molecular target: GalNAc(b1-6)GalNAc
Procedure, shortened: as §1

GalNAc3S(b1-4)GlcNAc = molecular target: GalNAc3S(b1-4)GlcNAc
Procedure, shortened: as §1

GalNAc3S(b1-4)GlcNAc3S = molecular target: GalNAc3S(b1-4)GlcNAc3S
Procedure, shortened: as §1

[9] = molecular target: GalNAc3S(b1-4)[Fuc(a1-3)]GlcNAc
Procedure, shortened: as §1

GalNAc4S6S(b1-4)GlcNAc = molecular target: GalNAc4S6S(b1-4)GlcNAc
Procedure, shortened: as §1

GalNAc6S(b1-4)GlcNAc = molecular target: GalNAc6S(b1-4)GlcNAc
Procedure, shortened: as §1

Glc(a1-4)Glc = molecular target: Glc(a1-4)Glc
Procedure, shortened: as §1

[10] = molecular target: Glc(a1-4)Glc(a1-4)Glc(a1-4)Glc
Procedure, shortened: as §1

Glc(a1-6)Glc(a1-6)Glc = molecular target: Glc(a1-6)Glc(a1-6)Glc
Procedure, shortened: as §1

[11] = molecular target: Glc(a1-6)Glc(a1-6)Glc(a1-6)Glc
Procedure, shortened: as §1

Glc(b1-4)Glc = molecular target: Glc(b1-4)Glc
Procedure, shortened: as §1

Glc(b1-6)Glc = molecular target: Glc(b1-6)Glc
Procedure, shortened: as §1

GlcA(b1-3)Gal = molecular target: GlcA(b1-3)Gal
Procedure, shortened: as §1

GlcA(b1-3)GlcNAc = molecular target: GlcA(b1-3)GlcNAc
Procedure, shortened: as §1

GlcA(b1-6)Gal = molecular target: GlcA(b1-6)Gal
Procedure, shortened: as §1

[12] = molecular target: GlcA3S(b1-3)Gal(b1-4)GlcNAc(b1-2)Man
Procedure, shortened: as §1

[13] = molecular target: GlcA3S(b1-3)Gal(b1-4)GlcNAc(b1-3)Gal(b1-4)Glc
Procedure, shortened: as §1

[14] = molecular target: GlcNAc(a1-3)Gal(b1-4)GlcNAc
Procedure, shortened: as §1

[15] = molecular target: GlcNAc(a1-4)Gal(b1-3)GlcNAc
Procedure, shortened: as §1

[16] = molecular target: GlcNAc(a1-4)Gal(b1-4)GalNAc
Procedure, shortened: as §1

[17] = molecular target: GlcNAc(a1-4)Gal(b1-4)GlcNAc
Procedure, shortened: as §1

[18] = molecular target: GlcNAc(a1-4)Gal(b1-4)GlcNAc(b1-3)Gal(b1-4)Glc
Procedure, shortened: as §1

[19] = molecular target: GlcNAc(a1-4)Gal(b1-4)GlcNAc(b1-3)Gal(b1-4)GlcNAc
Procedure, shortened: as §1

[20] = molecular target: GlcNAc(a1-4)Gal(b1-4)GlcNAc(b1-3)Gal(b1-4)GlcNAc(b1-3)Gal(b1-4)GlcNAc
Procedure, shortened: as §1

[21] = molecular target: GlcNAc(a1-4)Gal(b1-4)GlcNAc(b1-3)Gal(b1-4)[Fuc(a1-3)]GlcNAc(b1-3)Gal(b1-4)[Fuc(a1-3)]GlcNAc
Procedure, shortened: as §1

B1: MpL2 (Macrolepiota procera) (protein)
chain: MSTQVSSGQTYKITNVKAGTVIRLSGEDNKSIIGYPYHSGKNQQWTFNWTGKAWTLRSASSGSYLGIEGTPADGTRLVAVNDPFEWHIWRDEANENAFRIFVPFTNYNLDLSGYGDTTPGTPVQLWWTWEGLHQTWTIDRP
Gal6S(b1-4)Glc
  glycan array binding signal (z-score): -0.275
Gal6S(b1-4)Glc6S
  glycan array binding signal (z-score): 0.062
Gal6S(b1-4)GlcNAc
  glycan array binding signal (z-score): -0.327
Gal6S(b1-4)GlcNAc6S
  glycan array binding signal (z-score): -0.209
GalNAc(a1-3)Gal
  glycan array binding signal (z-score): -0.306
GalNAc(a1-3)GalNAc
  glycan array binding signal (z-score): 0.034
[1]
  glycan array binding signal (z-score): -0.218
[2]
  glycan array binding signal (z-score): -0.347
GalNAc(b1-3)Gal
  glycan array binding signal (z-score): -0.214
[3]
  glycan array binding signal (z-score): 0.367
[4]
  glycan array binding signal (z-score): 0.074
[5]
  glycan array binding signal (z-score): -0.923
GalNAc(b1-3)GalNAc
  glycan array binding signal (z-score): -0.475
GalNAc(b1-3)GlcNAc
  glycan array binding signal (z-score): -0.142
GalNAc(b1-4)Gal(b1-4)Glc
  glycan array binding signal (z-score): -0.084
GalNAc(b1-4)GlcNAc
  glycan array binding signal (z-score): 0.075
[6]
  glycan array binding signal (z-score): -1.07
[7]
  glycan array binding signal (z-score): -0.199
[8]
  glycan array binding signal (z-score): -0.975
GalNAc(b1-4)GlcNAc6S
  glycan array binding signal (z-score): -0.468
GalNAc(b1-6)GalNAc
  glycan array binding signal (z-score): -0.246
GalNAc3S(b1-4)GlcNAc
  glycan array binding signal (z-score): -0.246
GalNAc3S(b1-4)GlcNAc3S
  glycan array binding signal (z-score): -0.109
[9]
  glycan array binding signal (z-score): 0.243
GalNAc4S6S(b1-4)GlcNAc
  glycan array binding signal (z-score): -0.021
GalNAc6S(b1-4)GlcNAc
  glycan array binding signal (z-score): -0.32
Glc(a1-4)Glc
  glycan array binding signal (z-score): -0.285
[10]
  glycan array binding signal (z-score): -0.646
Glc(a1-6)Glc(a1-6)Glc
  glycan array binding signal (z-score): -0.037
[11]
  glycan array binding signal (z-score): -0.35
Glc(b1-4)Glc
  glycan array binding signal (z-score): -0.191
Glc(b1-6)Glc
  glycan array binding signal (z-score): -0.282
GlcA(b1-3)Gal
  glycan array binding signal (z-score): 0.2
GlcA(b1-3)GlcNAc
  glycan array binding signal (z-score): 0.105
GlcA(b1-6)Gal
  glycan array binding signal (z-score): 9.35
[12]
  glycan array binding signal (z-score): -0.011
[13]
  glycan array binding signal (z-score): -1.32
[14]
  glycan array binding signal (z-score): -0.334
[15]
  glycan array binding signal (z-score): -0.189
[16]
  glycan array binding signal (z-score): -0.251
[17]
  glycan array binding signal (z-score): -0.021
[18]
  glycan array binding signal (z-score): -0.304
[19]
  glycan array binding signal (z-score): 0.083
[20]
  glycan array binding signal (z-score): -0.264
[21]
  glycan array binding signal (z-score): 0.004
